# Measurements from PubChem BioAssay AID1454 (National Center for Advancing Translational Sciences (NCATS), 2008).
# The whole screen tested about 130,000 compounds, of which about 550 (0.42%) were called active. The inconclusive results got no clear call from the source; some entries with a clear call stand among them for comparison. Calls follow the shape of the dose curve; as a rule, active = well fitted inhibition curve with a large enough effect; inconclusive = small, poorly fitted or top-dose-only effect, or effect the other way; inactive = flat fitted curve, though single readings scatter. Potencies of inconclusive entries are left out as doubtful fits.
# Assay: qHTS Assay for Inhibitors of the ERK Signaling Pathway using a Homogeneous Screening Assay; Stimulation with EGF; also: nearly all actives have a fitted effect of over 55% in size;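 as to activity change, negative = inhibition: plate controls were stimulated vehicle wells for no effect and unstimulated vehicle basal for full effect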
# Details: HEK293-V1b, EGF-stimulated phospho-ERK AlphaScreen; activity change, negative = inhibition: at the top concentration
# In short: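 Compounds are titrated over HEK293-V1b cells kept overnight in 1% FBS. After 30 min at 37C, EGF (25 nM final) triggers ERK phosphorylation for 5 min, measured by AlphaScreen in lysates.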
# Potency is read from the fitted curve at half-maximal effect; tags tell the direction and shape of the fitted curve.
SMILES,Potency,"activity change, negative = inhibition"
COc1ccc(NC(=O)CC2C(=O)N(C)C(=S)N2CCc2ccccc2F)cc1 (stereo not drawn),"inconclusive [inhibitor, partial curve]",–
CCCOC(=O)c1ccc(NC(=O)c2ccc(Br)o2)cc1,"inconclusive [inhibitor, single point]",–
NC(=O)CC(NC(=O)Cc1ccc(Br)cc1)c1ccc(NC2CCC2)c([N+](=O)[O-])c1 (stereo not drawn),"inconclusive [inhibitor, partial curve]",–
O=C(NCCCN1CCOCC1)c1sc2cc(Cl)ccc2c1Cl,"inconclusive [inhibitor, single point]",–
CCOC(CNC(=O)c1ccc(CNC(=O)c2ccc(OC)c(OC)c2)cc1)OCC,"inconclusive [inhibitor, single point]",–
Cc1cccc(NC(=S)NC(=O)c2ccc(Br)o2)c1C,"inconclusive [inhibitor, partial curve]",–
COc1cc(/C=C2/C(=O)ON=C2c2ccccc2)ccc1O,"inconclusive [inhibitor, single point]",–
CCOc1ccc(N=C2NC(=O)SC2CC(=O)OC)cc1 (stereo not drawn),–,inactive: 5.21% [at 57.5 µM]
Cn1c(N=Nc2ccc(N3CCOCC3)cc2)[n+](C)c2ccccc21,active: 15.8 µM,–
O=C(CN1CCN(C(=O)c2ccco2)CC1)Nc1cccc([N+](=O)[O-])c1,–,inactive: -0.404%
O=c1oc2cc(Oc3ccc(C(F)(F)F)cc3[N+](=O)[O-])ccc2c2c1CCCC2,"inconclusive [inhibitor, partial curve]",–
COc1ccc(CC(=O)Nc2ccc(C(=O)Nc3ccccc3C(=O)O)cc2)cc1OC,"inconclusive [inhibitor, single point]",–
COC(=O)N1CCC2(CCN(Cc3ccc(C#N)cc3)CC2)CC1,"inconclusive [inhibitor, full curve, poor fit]",–
CC1CCN(c2ccc(C(=O)NCc3ccco3)cc2[N+](=O)[O-])CC1,"inconclusive [inhibitor, partial curve]",–
CCN(Cc1ccncc1)C(=O)c1ccccc1NS(=O)(=O)c1ccc(Br)cc1,–,inactive: -1.3% [at 57.5 µM]
Cc1cccc(Nc2nc(NCc3ccco3)c3ccccc3n2)c1,active: 28.2 µM,–
Cc1ccc(OCC(=O)Nc2ccc(N3CCN(C(=O)c4ccco4)CC3)cc2)cc1C,"inconclusive [inhibitor, partial curve]",–
N#C/C(=C(/N)Sc1ccc(N)cc1)c1ccccc1C(F)(F)F,active: 0.891 µM,–
CN(C)CCOC(=O)c1ccc2[nH]c3c(c2c1)CSCC3,"inconclusive [inhibitor, single point]",–
Cc1cc(/C=C2\SC(=S)N(C)C2=O)c(C)n1-c1cccc(O)c1,active: 28.2 µM,–
COc1ccccc1CNc1ncncc1-c1ccoc1,–,inactive: 26.5%
Cc1ccn2c(-c3csc(NCc4ccccc4)n3)c(C)nc2c1,"inconclusive [inhibitor, single point]",–
O=[N+]([O-])c1cccc(/C=N/N2CCN(Cc3ccccc3)CC2)c1,"inconclusive [inhibitor, single point]",–

SMILES,Potency,"activity change, negative = inhibition"
Cc1nc(NC(=S)Nc2ccccc2)sc1C,–,inactive: 10.2%
CC(CC(=O)Nc1ccccc1C(F)(F)F)c1ccccc1 (stereo not drawn),–,inactive: 3.57%
Cc1nc2cc(C)c(C)cc2s1,–,inactive: -20.3% [at 57.5 µM]
NC(=O)CC(NC(=O)Cc1ccc(Br)cc1)c1ccc(N2CCN(c3ccccc3)CC2)c([N+](=O)[O-])c1 (stereo not drawn),"inconclusive [inhibitor, single point]",–
O=C(COC(=O)c1ccc2[nH]c3c(c2c1)CCCC3)Nc1ccccc1,"inconclusive [inhibitor, single point]",–
CC1(C(=O)O)COC(c2ccc(Cl)cc2)OC1 (stereo not drawn),"inconclusive [inhibitor, full curve, poor fit]",–
Clc1nc(Nc2ccccc2)nc(Nc2ccccc2)n1,"inconclusive [inhibitor, single point]",–
CN1CCc2c(sc(/N=C/c3cc(Cl)ccc3O)c2C#N)C1,"inconclusive [inhibitor, single point]",–
CC1=NNC(=O)/C1=C\c1cn(-c2ccccc2)nc1-c1cccs1,"inconclusive [inhibitor, single point]",–
O=c1cc(-c2ccc(O)cc2)oc2cc(OC3OC(CO)C(O)C(O)[C@H]3O[C@@H]3OC[C@@](O)(CO)C3O)cc(O)c12 (stereo partly drawn),–,inactive: 25.1%
COC(=O)N1CCC2(CCN(C(=O)Nc3cccc(F)c3)CC2)CC1,–,inactive: -4.02%
O=C1C(Cl)=C(NC2CCCCC2)C(=O)N1Cc1ccccc1,"inconclusive [activator, partial curve]",–
Cc1ccc(-n2cc(CN3CCC(CO)(Cc4cccc(C(F)(F)F)c4)CC3)cn2)cc1,"inconclusive [inhibitor, partial curve]",–
COc1cccc(-n2c(SCc3cc(=O)oc4cc(O)c(O)cc34)nc3ccccc3c2=O)c1,"inconclusive [inhibitor, single point]",–
CC(C)(C)c1ccc(-n2nc(C#N)c(Cl)cc2=O)cc1,"inconclusive [inhibitor, single point]",–
Cc1ccccc1N=Nc1ccc(O)c2ncccc12,"inconclusive [inhibitor, single point]",–
Nc1ncnc(Nc2ccc(F)c(Cl)c2)n1,"inconclusive [inhibitor, single point]",–
S=C(NCc1cccnc1)Nc1cc(Cl)cc(Cl)c1,"inconclusive [inhibitor, single point]",–
CC1CCC(C(C)C)C(OC(=O)COC(=O)c2cc(O)ccc2N)C1 (stereo not drawn),"inconclusive [inhibitor, single point]",–
O=C(Nc1cccc(F)c1)c1ccc(-c2ccccc2Cl)o1,"inconclusive [activator, full curve, poor fit]",–
O=C(c1cc(O)c(O)c([N+](=O)[O-])c1)c1ccccc1F,"inconclusive [inhibitor, single point]",–
O=S(=O)(Nc1nc2ccccc2nc1Cl)c1ccc(Br)cc1,–,inactive: 43.8%
CC#C[C@]1(O)CC[C@H]2[C@@H]3CCC4=CC(=O)CCC4=C3[C@@H](c3ccc(N(C)C)cc3)C[C@@]21C,–,inactive: -5.22% [at 57.5 µM]

SMILES,Potency,"activity change, negative = inhibition"
O=C(NCc1cccnc1)c1cc(Sc2ccccc2Cl)nc2ccccc12,"inconclusive [inhibitor, single point]",–
COc1cc(N=C(N)N=C(N)N)cc(OC)c1,–,inactive: -2.2%
O=C(NN=C1CCCCCCC1)c1ccc2ccccc2n1,"inconclusive [activator, full curve]",–
Nc1nnc(N2CCCCCC2)s1,"inconclusive [activator, partial curve]",–
COc1cc(/C=C/C(=O)OCC(=O)N2CCC(Cc3ccccc3)CC2)ccc1O,"inconclusive [inhibitor, single point]",–
COc1ccc(CSCCc2n[nH]c(=S)n2-c2ccccc2)cc1C,"inconclusive [inhibitor, single point]",–
Cc1ccc(C)c(NC2=C(Cl)C(=O)OC2OC(C)C)c1 (stereo not drawn),–,inactive: -12.8%
COc1ccc(-c2c(C#N)c(N)nc3sc(C(=O)c4ccccc4)c(N)c23)cc1,"inconclusive [activator, partial curve]",–
Cc1ccc2[nH]c(=O)c(CN(C(=O)c3cccc([N+](=O)[O-])c3)C(C)(C)C)cc2c1,"inconclusive [inhibitor, full curve, poor fit]",–
COc1ccc(CN(C(=O)c2ccc(CN3CCOCC3)o2)C(C(=O)NCC2CCCO2)c2ccc(F)cc2)cc1 (stereo not drawn),"inconclusive [inhibitor, partial curve]",–
CCOC(=O)c1c(NC(=O)c2ccccc2N(C)S(=O)(=O)c2ccccc2)sc2c1CCCC2,"inconclusive [activator, single point]",–
CCOC(=O)c1cnc(-n2nc(C)cc2C)nc1Nc1ccc(N(C)C)cc1,"inconclusive [inhibitor, partial curve]",–
COc1ccc(Nc2ccc(S(=O)(=O)N3CCCCC3)cc2[N+](=O)[O-])cc1OC,"inconclusive [inhibitor, partial curve]",–
Cc1ccc(NC(=O)C(c2ccccc2)N(C)C)cc1Cl (stereo not drawn),–,inactive: -6.91%
COc1ccc(OCC(=O)Nc2ccc(N3CCC(C)CC3)cc2)cc1,"inconclusive [inhibitor, single point]",–
Cc1[nH]c2ccccc2c1/C=N/Nc1ccccc1[N+](=O)[O-],active: 25.1 µM,–
C=C1C(=O)O[C@H]2C1CC[C@@](C)(O)C13C=CC(C)(C21)C1(C3)C(=O)O[C@@H]2C3C(C)=CCC3[C@](C)(O)C[C@H](OC(C)=O)C21 (stereo partly drawn),"inconclusive [inhibitor, partial curve]",–
COc1ccc(/C=C/C=C2\N=C(SC)SC2=O)cc1,"inconclusive [inhibitor, single point]",–
Cc1ccc(S(=O)(=O)Nc2ccc(N(C)C)cc2)cc1,"inconclusive [inhibitor, partial curve]",–
c1ccc(C2CC(c3cccs3)=NN2c2ccccc2)cc1 (stereo not drawn),"inconclusive [activator, partial curve]",–
CCCCC(CC)CN=C(N)NC(N)=NCCCCCCN=C(N)NC(N)=NCC(CC)CCCC (stereo not drawn),"inconclusive [inhibitor, single point]",–
O=C(/C=C/c1cccs1)Nc1ccc([N+](=O)[O-])cc1,"inconclusive [inhibitor, single point]",–
